Reference: PubChem BioAssay (NCATS)
Values joined by “and” are separate entries in the source; they are usually repeats but may differ in a detail not shown here. Equal values may be shown once. The list shows a part of the results. The main result of the screen is listed elsewhere. These columns were measured beside it and carry no call. For some assays here: Most of these compounds were active or inconclusive in the main read-out, so they are no random draw. Potencies come from curve fits of mixed quality, noted in brackets.

Experiments:
[1] = target: Histamine N-methyltransferase (Homo sapiens) (UniProt P50135); assay: Confirmatory Screen for Target Class Profiling of Small Molecule Inhibitors of Methyltransferases (AID 1745852); conditions: MTase-Glo luminescence, SAH detection, recombinant enzyme; measured here: HNMT inhibition potency;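 also: inhibitor potency for blocking SAH production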
[2] = target: Nicotinamide N-methyltransferase (Homo sapiens) (UniProt P40261); assay: as above; conditions: MTase-Glo luminescence, SAH detection, recombinant enzyme; measured here: NNMT inhibition potency
[3] = qHTS drug screen for cell cycle checkpoint inhibitors in PARPi-resistant BRCA-mutant ovarian cancer cell lines. (AID 1963452); conditions: PEO1/OlaR viability, CellTiter-Glo luminescence, 96 h
Procedure, shortened: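 PEO1, PEO4 and PEO1/OlaR ovarian cancer cells, 600 per well, exposed 96 h at 37C to a dilution series. Viability read by CellTiter-Glo luminescence, normalized to DMSO and empty wells; activity summarized as Z-AUC.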

[4] = qHTS for identification of novel therapeutic agents for treatment of microphthalmiaassociated transcription factor (MiT) renal cell carcinoma (RCC) (AID 1963991); conditions: CellTiter-Glo, 48 h; for z-score: stronger effect = lower value
Procedure, shortened: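 Curves over 11 concentrations were fitted to CellTiter-Glo luminescence, scaled between empty wells (0%) and DMSO (100%) viability. Cells were UOK109, UOK124 and UOK145 TFE3-fusion RCC lines at 500/well, exposed 48 hours at 37 C.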

[5] = NCATS anti-infectives library activity on the primary C. elegans qHTS viability assay (AID 1745855); conditions: C. elegans worm area imaging, day 7, day 3
Procedure, shortened: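 Viability read-out is GFP fluorescence of PE254-GFP-FLuc C. elegans, measured by laser cytometry (488 nm) at day 0, 3 and 7. Ten L1 worms per well were incubated 7 days at 21 °C with compounds and bacterial capsules in S medium.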

[6] = target: Phenylethanolamine N-methyltransferase (Homo sapiens) (UniProt P11086); assay: Confirmatory Screen for Target Class Profiling of Small Molecule Inhibitors of Methyltransferases (AID 1745852); conditions: MTase-Glo luminescence, SAH detection, recombinant enzyme; measured here: PNMT inhibition potency;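 also: inhibitor potency for blocking SAH production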
[7] = measured here: PEO1 parental viability
[8] = TFE3-RCC viability, measured here: UOK124 cell viability
[9] = TFE3-RCC viability, measured here: UOK145 cell viability
[10] = TFE3-RCC UOK109 viability, measured here: UOK109 Z-AUC
[11] = TFE3-RCC viability, measured here: UOK124 Z-AUC
[12] = TFE3-RCC viability, measured here: UOK145 Z-AUC
Tags tell the direction and shape of the fitted curve.

UniProt P40261, sequence (P40261 whole entry, looked up): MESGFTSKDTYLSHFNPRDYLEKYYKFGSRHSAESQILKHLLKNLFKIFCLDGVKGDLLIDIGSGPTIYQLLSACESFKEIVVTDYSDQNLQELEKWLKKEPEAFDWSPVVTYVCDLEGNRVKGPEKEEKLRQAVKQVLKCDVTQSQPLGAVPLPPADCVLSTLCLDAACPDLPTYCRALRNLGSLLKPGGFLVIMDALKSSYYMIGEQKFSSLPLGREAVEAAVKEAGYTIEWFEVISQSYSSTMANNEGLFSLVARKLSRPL
UniProt P11086, sequence (P11086 whole entry, looked up): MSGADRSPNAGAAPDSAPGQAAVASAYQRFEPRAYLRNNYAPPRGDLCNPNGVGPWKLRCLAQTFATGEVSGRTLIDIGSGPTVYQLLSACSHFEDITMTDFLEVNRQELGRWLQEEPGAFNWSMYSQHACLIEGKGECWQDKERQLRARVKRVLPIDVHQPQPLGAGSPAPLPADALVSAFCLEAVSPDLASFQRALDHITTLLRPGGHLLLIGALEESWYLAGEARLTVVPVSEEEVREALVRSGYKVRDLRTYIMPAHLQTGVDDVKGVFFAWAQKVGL
UniProt P50135, sequence (P50135 whole entry, looked up): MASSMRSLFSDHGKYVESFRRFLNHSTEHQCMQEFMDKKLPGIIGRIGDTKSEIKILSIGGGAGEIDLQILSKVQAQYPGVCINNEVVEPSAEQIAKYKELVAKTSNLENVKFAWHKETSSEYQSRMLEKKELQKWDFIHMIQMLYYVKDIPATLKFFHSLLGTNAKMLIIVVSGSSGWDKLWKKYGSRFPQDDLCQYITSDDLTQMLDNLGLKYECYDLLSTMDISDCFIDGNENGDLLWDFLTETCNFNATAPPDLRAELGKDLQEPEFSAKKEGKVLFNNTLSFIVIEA

In the case of C=CC(=O)Nc1cccc(Oc2nc(Nc3ccc(N4CCN(C)CC4)cc3)ncc2Cl)c1, the IC50 [1] is reported as 21.5 µM [falling, partial curve], the IC50 [2] is reported as 21.5 µM [falling, partial curve] and the AC50 [3, 7] is reported as 1.55 µM [falling, full curve]. The AC50 ([3]; measured here: PEO4 viability) was 1.23 µM [falling, full curve], the AC50 [4, 8] was 20.9 µM [falling, partial curve] and the AC50 [4, 9] was 4.18 µM [falling, partial curve].
In the case of C=CC(=O)Nc1cccc(Nc2nc(Nc3ccc(Oc4ccnc(C(=O)NC)c4)cc3)ncc2F)c1, the IC50 [1] is reported as 6.07 µM [falling, full curve], the IC50 [2] is reported as 10.8 µM [falling, partial curve] and the AC50 [3, 7] is reported as 15.5 µM [falling, partial curve]. The AC50 ([3]; measured here: PEO4 viability) was 9.77 µM [falling, partial curve, poor fit].
With COc1cc(N2CCC(N)CC2)ccc1Nc1ncc(Cl)c(-c2c[nH]c3ccccc23)n1 the IC50 [1] was 15.2 µM [falling, partial curve], the IC50 [2] was 24.1 µM [falling, partial curve] and the AC50 [3, 7] was 1.95 µM [falling, full curve]. The AC50 ([3]; measured here: PEO4 viability) was 0.616 µM [falling, full curve].
For Cc1c[nH]c2ncnc(N3CCC(CN)(C(=O)Nc4cccc(OC(=O)N(C)C)c4)CC3)c12, the IC50 [1] was 49.4 µM [falling, partial curve], the IC50 [2] was 49.4 µM [falling, partial curve] and the AC50 [3, 7] was 0.616 µM [falling, partial curve, poor fit]. For the same compound, the AC50 ([3]; measured here: PEO4 viability) was 24.5 µM [falling, single point].
In the case of CCN(CC)Cc1ccc2cc(COC(=O)Nc3ccc(C(=O)NO)cc3)ccc2c1, the IC50 [1] is reported as 24.1 µM [falling, partial curve], the AC50 ([5]; measured here: worm area) is reported as 0.578 µM [falling, full curve, poor fit] and the AC50 ([5]; measured here: worm number) is reported as 16.3 µM [falling, partial curve]. For the same compound, the AC50 [3, 7] was 1.55 µM [falling, full curve], the AC50 ([3]; measured here: PEO4 viability) was 1.23 µM [falling, full curve] and the z-score [4, 10] was -0.906. The z-score [4, 11] was -3.37, the AC50 [4, 8] was 1.66 µM [falling, full curve] and the z-score [4, 12] was -0.729. For the same compound, the AC50 [4, 9] was 5.9 µM [falling, partial curve].
With CC(C)CNc1ccnc(NCc2csc(-c3ccccc3)n2)n1 the IC50 [1] was 6.81 µM [falling, partial curve], the IC50 [2] was 24.1 µM [falling, partial curve] and the AC50 [3, 7] was 1.95 µM [falling, full curve]. The AC50 ([3]; measured here: PEO4 viability) was 19.5 µM [falling, single point], the z-score [4, 10] was -0.145 and the z-score [4, 11] was -0.511. The AC50 [4, 8] was 16.6 µM [falling, partial curve], the z-score [4, 12] was -0.289 and the AC50 [4, 9] was 29.6 µM [falling, single point].
With Nc1nc(Nc2ccc3c(c2)CC[C@@H](N2CCCC2)CC3)nn1-c1cc2c(nn1)-c1ccccc1CCC2 the IC50 [1] was 6.81 µM [falling, full curve], the AC50 [3, 7] was 12.3 µM [falling, partial curve] and the AC50 ([3]; measured here: PEO4 viability) was 9.77 µM [falling, partial curve].
In the case of N#C/C(=C1\Nc2ccccc2S1)c1ccnc(NCCc2cccnc2)n1, the IC50 [1] is reported as 42.9 µM [falling, single point], the IC50 [2] is reported as 12.1 µM [falling, partial curve] and the IC50 [6] is reported as 21.5 µM [falling, partial curve, poor fit].
In the case of CNCCN(C)Cc1cn[nH]c1-c1ccc(OC2CC(OCCC3CCOCC3)C2)cc1 (stereo unspecified), the IC50 [1] is reported as 17.2 µM [falling, partial curve], the IC50 [2] is reported as 0.0153 µM [rising, full curve, poor fit] and the AC50 [3, 7] is reported as 6.92 µM [falling, partial curve].
For CC(=O)N(C)C1(c2ccccc2)CCN(CCC[C@]2(c3ccc(Cl)c(Cl)c3)CCCN(C(=O)c3ccccc3)C2)CC1, the IC50 [1] was 24.1 µM [falling, partial curve, poor fit], the IC50 [2] was 19.2 µM [falling, partial curve] and the z-score [4, 10] was 0.275. For the same compound, the z-score [4, 11] was 0.445, the AC50 [4, 8] was 20.9 µM [falling, partial curve] and the z-score [4, 12] was -0.208. For the same compound, the AC50 [4, 9] was 26.4 µM [falling, single point].
In the case of NC1(Cc2ccc(Cl)cc2)CCN(c2ncnc3[nH]ccc23)CC1, the IC50 [1] is reported as 10.8 µM [falling, partial curve], the IC50 [6] is reported as 24.1 µM [falling, partial curve] and the AC50 [3, 7] is reported as 17.4 µM [falling, single point]. For the same compound, the AC50 ([3]; measured here: PEO4 viability) was 15.5 µM [falling, partial curve], the z-score [4, 10] was 0.588 and the z-score [4, 11] was 0.563. The AC50 [4, 8] was 18.7 µM [falling, partial curve], the z-score [4, 12] was -0.407 and the AC50 [4, 9] was 18.7 µM [falling, partial curve].
In the case of CNC1CCC(N(Cc2cccc(-c3ccncc3)c2)C(=O)c2sc3ccccc3c2Cl)CC1 (stereo unspecified), the IC50 [1] is reported as 24.1 µM [falling, partial curve], the IC50 [2] is reported as 19.2 µM [falling, partial curve] and the AC50 [3, 7] is reported as 15.5 µM [falling, single point]. The AC50 ([3]; measured here: PEO4 viability) was 21.9 µM [falling, single point], the z-score [4, 10] was 0.0961 and the z-score [4, 11] was -0.478. For the same compound, the AC50 [4, 8] was 10.5 µM [falling, full curve], the z-score [4, 12] was 0.0924 and the AC50 [4, 9] was 16.6 µM [falling, partial curve].
For CC[C@@H]1C(=O)N(C)c2cnc(Nc3ccc(C(=O)NC4CCN(C)CC4)cc3OC)nc2N1C1CCCC1, the IC50 [1] was 19.3 µM [falling, partial curve], the IC50 [2] was 21.7 µM [falling, partial curve] and the IC50 [6] was 21.7 µM [falling, partial curve]. For the same compound, the AC50 [3, 7] was 0.0155 µM [falling, full curve], the AC50 ([3]; measured here: PEO4 viability) was 0.0174 µM [falling, full curve] and the AC50 [4, 8] was 1.05 µM [falling, full curve]. The AC50 [4, 9] was 16.6 µM [falling, partial curve].
With Nc1ncnc2c1c(-c1cccc(OCc3ccccc3)c1)cn2C1CC(CN2CCC2)C1 (stereo unspecified) the IC50 [1] was 2.71 µM [falling, full curve], the IC50 [2] was 24.1 µM [falling, partial curve, poor fit] and the IC50 [6] was 9.61 µM [falling, partial curve]. For the same compound, the AC50 [3, 7] was 15.5 µM [falling, partial curve], the AC50 ([3]; measured here: PEO4 viability) was 3.89 µM [falling, partial curve] and the z-score [4, 10] was 0.295. For the same compound, the z-score [4, 11] was 0.0186, the AC50 [4, 8] was 14.8 µM [falling, partial curve] and the z-score [4, 12] was 0.751.
For COc1cc2c(cc1OC)CN(CCc1ccc(NC(=O)c3cccc4c(=O)c5cccc(OC)c5[nH]c34)cc1)CC2, the IC50 [1] was 7.64 µM [falling, full curve], the IC50 [2] was 1.52 µM [falling, full curve] and the z-score [4, 10] was -0.648. The z-score [4, 11] was 0.81, the z-score [4, 12] was 0.289 and the AC50 [4, 9] was 16.6 µM [falling, partial curve].
For O=C(Nc1ccc2c(N3CCOCC3)ncnc2c1)c1cccc(Cl)c1, the IC50 [1] was 7.64 µM [falling, partial curve] and the IC50 [6] was 24.1 µM [falling, partial curve, poor fit].
With CCS(=O)(=O)c1cccc(-c2cc(C(=O)NC3CCN(C)CC3)c(C)c3[nH]c4ncc(C)cc4c23)c1 the IC50 [1] was 14.9 µM [falling, partial curve] and 21.7 µM [falling, partial curve, poor fit], the IC50 [2] was 13.3 µM [falling, partial curve] and 21.7 µM [falling, partial curve] and the AC50 [3, 7] was 1.38 µM [falling, full curve]. For the same compound, the AC50 ([3]; measured here: PEO4 viability) was 1.95 µM [falling, full curve], the z-score [4, 10] was -0.579 and the z-score [4, 11] was -0.881. For the same compound, the AC50 [4, 8] was 6.62 µM [falling, partial curve], the z-score [4, 12] was -0.625 and the AC50 [4, 9] was 20.9 µM [falling, partial curve].
With NC(=O)c1cnc(-c2ccc(C3(N)CCC3)cc2)c(-c2ccccc2)c1 the IC50 [1] was 21.5 µM [falling, partial curve], the IC50 [2] was 21.5 µM [falling, partial curve] and the z-score [4, 10] was -0.105. The z-score [4, 11] was -0.855, the AC50 [4, 8] was 4.18 µM [falling, partial curve, poor fit] and the z-score [4, 12] was 0.355.
In the case of Cc1cnc(Nc2ccc(OCCN3CCCC3)cc2)nc1Nc1cccc(S(=O)(=O)NC(C)(C)C)c1, the IC50 [1] is reported as 15.2 µM [falling, partial curve], the IC50 [2] is reported as 21.5 µM [falling, partial curve] and the AC50 [3, 7] is reported as 5.49 µM [falling, full curve]. For the same compound, the AC50 ([3]; measured here: PEO4 viability) was 5.49 µM [falling, partial curve], the z-score [4, 10] was 0.72 and the z-score [4, 11] was 0.182. For the same compound, the AC50 [4, 8] was 26.4 µM [falling, partial curve, poor fit] and the z-score [4, 12] was 0.852.
In the case of COc1cc(NC(=O)Nc2cccc(CNC(=O)O[C@H]3CCOC3)c2)ccc1-c1cnco1, the IC50 [1] is reported as 10.8 µM [falling, partial curve] and the AC50 ([5]; measured here: worm area) is reported as 0.325 µM [falling, full curve, poor fit].
In the case of Cn1cc(-c2cnn3c(N)c(Br)c([C@H]4CCCNC4)nc23)cn1, the IC50 [1] is reported as 7.64 µM [falling, partial curve], the IC50 [6] is reported as 15.2 µM [falling, partial curve] and the AC50 [3, 7] is reported as 21.9 µM [falling, single point] and 1.55 µM [falling, partial curve, poor fit]. The AC50 ([3]; measured here: PEO4 viability) was 15.5 µM [falling, partial curve], the z-score [4, 10] was 0.0336 and the z-score [4, 11] was -0.636. For the same compound, the AC50 [4, 8] was 0.264 µM [falling, full curve, poor fit], the z-score [4, 12] was -0.466 and the AC50 [4, 9] was 4.18 µM [falling, partial curve].
For Cc1noc(C)c1-c1cc2c(cc(C)n2CCN(C)C)c(Nc2ccncn2)n1, the IC50 [1] was 35 µM [falling, partial curve] and the IC50 [6] was 39.3 µM [falling, partial curve, poor fit].
